Assay results: the supplement of paper PMC11417369
± gives the standard deviation of the averaged measurements. The list shows a part of the results.

System: PfAP2-I AP2 domain 3 (GST-tagged)
Assay: gcPBM binding intensity (ln(normalized median fluorescence intensity)); higher = stronger DNA binding
How it was run: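 For binding intensity, the highest Masliner-normalised natural-log median intensity across replicate spots of either probe orientation was taken. Protein bound to the array was stained with Alexa488 anti-GST antibody and scanned at 488 nm. The protein, GST-tagged P. falciparum DNA-binding domains from E. coli at about 25 μg on average, had been applied for 1 h to an Agilent 4 × 180k array of primer-extended double-stranded 36-bp intergenic genomic probes and negative controls.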

Sequence	gcPBM binding intensity (ln)
AAATAAAATAAAATACGTACCTATTGTGCGTATTAA [XGTACX_site2912]	7.78 ± 0.57
AATAATTTCCAAAAATGTACATATATTTACATATAT [XGTACX_site1790]	7.72 ± 0.38
ATTTTAACTCCCCTTAATCTATTGTATATATATATA [CACACA_negctrl_site208]	9.14 ± 0.014
TAATAAATGTTATTAGTGCATAATAGATAATATATT	10.8 ± 0.64
AGCCACTTAAAATACACACACACCAAAAAAAAAAAA [CACACA_site5497]	8.06 ± 0.59
TATTTTATTTATTGAAGTACATTATACAAAAATAAA [XGTACX_site4824]	7.78 ± 0.16
TTATTTGTTTGTTGGATGCTTTTTTTTTTTTTTTTT [CACACA_negctrl_site1697]	9.09 ± 0.56
TACATATATATAATATGTACTTATAATATGTATTTA [XGTACX_site2162]	7.38 ± 0.18
AAAAGTGATAATAAGAGTACATAAAAAATTTATTAT [XGTACX_site8037]	7.95 ± 0.43
ATTTCCCACTTGTGTGTGCGCATGTGTATATATTTA [GTGCAC_site9949]	8.53 ± 1
AAATAATTTATAAATAAATACATTGTTACTTTTTCT [GTGCAC_negctrl_site639]	7.46 ± 0.66
TATTCTATACTATATTGTACTATAATATAATATACT [XGTACX_site797]	7.75 ± 0.38
TCTTCATATGTTTACTGTACGAGAAAAAAAAAAAAA [XGTACX_site6418]	8.23 ± 0.49
TATGTGTATTTATTTGCATGTTGGTTGTATTTTTTC [TGCATGCA_site479]	7.82 ± 0.38
TAATAAAATAAAAATTGTACATTTTATATTTATCAA [XGTACX_site5134]	7.38 ± 0.33
AATGAAAAAAAAAAAAAAAAGAAGAAGCAAATGGTA [TGCATGCA_negctrl_site335]	7.56 ± 0.72
ATAAATAATTATATATGTACACATTATGAATGGATA [XGTACX_site8336]	7.78 ± 0.4
AGATTATTTGGACATGCATGTAAAAAAATACGTATA [TGCATGCA_site972]	7.76 ± 0.58
AAAATATTTAAGCATTGTACATATTTTTACAAATAC [XGTACX_site5349]	7.66 ± 0.43

Sequence	gcPBM binding intensity (ln)
AAAATTCATCCAACAAGTACATAAATATAATATTAT [XGTACX_site4596]	7.77 ± 0.35
GGAAAAAGAAATTAATGTACATGTGGATGTATGAGG [XGTACX_site5468]	8.23 ± 0.64
TAGAAACCATAAAAATGTACTTAAAAATAGACAATT [XGTACX_site5007]	7.77 ± 0.69
AAGAACAGATAAAATCGTACGTGAAACATGAACTTG [XGTACX_site7793]	7.62 ± 0.77
TCTGAAATTTTAGGGGTGCCTGGGACTAAAGAAACG [GTGCAC_site9785]	8.32 ± 0.51
ATACATAAATATTATTGTACATATATAATATTAATA [XGTACX_site3514]	7.7 ± 0.33
TTTAATTCCCATATATGTACACAATTTCTTCTATAA [XGTACX_site1465]	8.06 ± 0.4
AGACTTTTTATGAGCACACACATATATTATGGAGTA [CACACA_site1040]	8.18 ± 0.54
ATAAATTCATTATATTGTACAAACAAATGAAAAAAA [XGTACX_site8304]	7.72 ± 0.38
ATTTTTACTTTTTATGCATGCTATATTTTCAACCAT [TGCATGCA_site871]	8.47 ± 0.82
ATTTTTTTTTTTTTATGTACATATTAAAAAAAATAT [XGTACX_site1829]	7.78 ± 0.28
GGTATTACTTTTAGCTGTACTTATTTAAAAGTCAAA [XGTACX_site530]	8.28 ± 0.2
ATTAAGGAAAAATTATGTACACAAAAACATATAACA [XGTACX_site2901]	8.14 ± 0.45
TATACATGTTCAATTTGTACATATATAAATATATAT [XGTACX_site3554]	7.64 ± 0.31
CTACACAAGCATTAAACACACAAAAGGGATACTTTG [CACACA_site1083]	7.71 ± 0.64
ATTCAAAAAAATAAAATAAACATAAATAAACATAAA [TGCATGCA_negctrl_site390]	7.55 ± 0.47
TATTTCTTTATTGGCACACATTTTTTCAATTATATA [CACACA_site4975]	8.88 ± 0.28
GCAAATATGTTGATATGTACATATATATATATATAT [XGTACX_site445]	9.21 ± 0.43
ATATACAAATATATATATATATATATATATATATAT [CACACA_negctrl_site886]	9.14 ± 0.46

Sequence	gcPBM binding intensity (ln)
AAAAAATATACATATACACACATATGTATATATAAT [CACACA_site8676]	7.57 ± 0.31
ATTATTTTAATAAAACGTACAAAATATAAATCAAAA [XGTACX_site3770]	7.95 ± 0.54
TTTTTTCATATAAATACATGCACACAAAAATATCAA [TGCATGCA_site602]	8.61 ± 0.13
AATAACAAAATATTAACACACATAACATATTATAAA [CACACA_site2803]	7.55 ± 0.47
TAATGTTTTTTTTGTTTACCAAAAATAATACATTAT [CACACA_negctrl_site203]	7.49 ± 0.47
ATATATATATATGTGTGTACATATATGTGGATGGAT [XGTACX_site6240]	9.45 ± 0.25
AGGTAGAAAAAAGACACACACATTATGTATATATAT [CACACA_site377]	8.39 ± 0.54
TTATAGGATCAAGCGCGTACATATCTTTATAAAAGA [XGTACX_site5775]	7.83 ± 0.55
ACATAAGAACATATTTGTACGTATATAAATTAAATA [XGTACX_site6127]	8.11 ± 0.22
ACAACAAAAATAAGCACACACAAATATACATACATA [CACACA_site7664]	8.23 ± 0.26
TTATATATTAATAGTAGTACTATATTGAATCACCCC [XGTACX_site2868]	8.34 ± 0.13
TTATTTTTGTTTTGAAGTACAAAAAAATATATTCTT [XGTACX_site6416]	7.63 ± 0.34
AAAATTTATATAAGCACACAAATATATATTTATATC [CACACA_site3291]	7.96 ± 0.49
AGTTTATAGTGATATTGTACATATATATATATATAT [XGTACX_site572]	9.21 ± 0.27
TATTTATACTCAACTTTCTGTTATTCCAACTTTTTT [XGTACX_negctrl_site410]	7.73 ± 0.52
TATACTTTATATATTTTGTATATATATTTTTTTTAT [TGCATGCA_negctrl_site530]	7.5 ± 0.28
TCTTGTTATTTAAATGCATGTTGATTTTAAAAAATT [TGCATGCA_site840]	8.13 ± 0.61
AATAAAAAGTAATAATAACGTATAATTTATTATACT [TGCATGCA_negctrl_site414]	7.24 ± 0.49
